Tests used:
OX40-hFc = target: T1, OX40-hFc (human, UniProt P43489 29-214); assay: ELISA; exosomes coated, OX40-hFc added, anti-human IgG-HRP detection; reference for GEMINI-Exos
T1 construct: Bought from BioLegend; also called OX40-Fc; biotinylated OX40-hFc; not shown: human Fc (hFc) of the bought reagent
T1 sequence (looked up): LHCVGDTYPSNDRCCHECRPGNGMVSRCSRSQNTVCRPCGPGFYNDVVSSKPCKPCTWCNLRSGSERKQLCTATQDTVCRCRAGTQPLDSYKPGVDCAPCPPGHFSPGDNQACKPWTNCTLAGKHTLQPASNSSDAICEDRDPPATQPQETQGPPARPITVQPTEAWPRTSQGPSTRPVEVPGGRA
Method: (§1) ELISA analysis of binding of engineered exosomes to ligands and receptors. […] High-binding 96 well plates (Greiner Bio-One, Monroe, NC) were coated with various concentrations of exosomes overnight at room temperature. Following extensive washing with PBST, wells were blocked with PBS containing 1% BSA for 2 hours at room temperature, followed by extensive washing with PBST. Corresponding ligands or receptors ([…]; PD-L1-hFc and PD-L2-hFc from PeproTech, Inc. and OX40-hFc from BioLegend) were added and incubated for 2 hours at room temperature, followed by extensive washing with PBST. Goat anti-human IgG-HRP was subsequently added for 1-hour incubation at room temperature, followed by extensive washing. QuantaBlu fluorogenic peroxidase substrate (Thermo Fisher Scientific, MA) was then added.

[1] = target: T2, PD-L2 on IFN-γ stimulated BT-20 cells (human, UniProt Q9BQ51 20-273); assay: flow cytometry on BT-20 cells, anti-HA detection; weaker than GEMINI-Exos
T2 construct: whole, on cells; BT-20 cells also carry PD-L1 and EGFR; also called PD-L2^+ BT-20 cells
T2 sequence (looked up): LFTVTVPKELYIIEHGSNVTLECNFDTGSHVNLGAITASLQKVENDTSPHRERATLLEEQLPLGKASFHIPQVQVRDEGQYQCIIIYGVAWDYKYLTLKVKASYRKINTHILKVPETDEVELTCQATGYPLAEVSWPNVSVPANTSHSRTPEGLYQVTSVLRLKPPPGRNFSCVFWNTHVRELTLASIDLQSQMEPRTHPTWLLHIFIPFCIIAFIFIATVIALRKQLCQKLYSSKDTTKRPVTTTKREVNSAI

[2] = target: T3, PD-L1 on IFN-γ stimulated BT-20 cells (human, UniProt Q9NZQ7); assay: as above
T3 construct: whole, on cells; BT-20 cells also carry PD-L2 and EGFR; also called PD-L1^+ BT-20 cells; PD-L1-expressing BT-20 cells

PD-L2-hFc = target: T4, PD-L2-hFc (human, UniProt Q9BQ51 20-220, limits assumed); assay: ELISA; exosomes coated, PD-L2-hFc added, anti-human IgG-HRP detection; reference for GEMINI-Exos
T4 construct: Bought from PeproTech; also called PD-L2-Fc; not shown: human Fc (hFc) of the bought reagent
T4 sequence (looked up): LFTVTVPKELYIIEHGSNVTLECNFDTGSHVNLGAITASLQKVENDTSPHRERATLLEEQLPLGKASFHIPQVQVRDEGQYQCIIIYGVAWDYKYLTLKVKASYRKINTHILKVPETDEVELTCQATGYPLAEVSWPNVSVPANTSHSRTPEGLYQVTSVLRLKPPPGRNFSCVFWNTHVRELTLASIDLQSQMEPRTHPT
Method: as §1

Measured: binding result

T3 sequence (Q9NZQ7 19-290): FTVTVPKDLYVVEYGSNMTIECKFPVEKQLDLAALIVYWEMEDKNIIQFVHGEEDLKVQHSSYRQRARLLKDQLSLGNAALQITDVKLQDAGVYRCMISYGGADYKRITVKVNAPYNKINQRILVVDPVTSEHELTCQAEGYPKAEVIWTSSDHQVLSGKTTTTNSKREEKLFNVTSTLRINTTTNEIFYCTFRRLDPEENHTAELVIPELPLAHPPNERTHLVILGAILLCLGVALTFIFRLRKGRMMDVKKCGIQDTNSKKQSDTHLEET

B1: PD-1-OX40L-Exos (other)
chain: YPYDVPDYAGAQPARSF[about 150 residues not shown]VGVVGGLLGSLVLLVWVLAVICSRAARGTIGARRTGQPLKEDPSAVPVFSVDYGELDFQWREKTPEPPVPCVPEQTEYATIVFPSGMGTSSPARRGSADGPRSAQPLRPEDGHCSWPLASGGGGSPVKGGTKCIKYLLFGFNFIFWLAGIAVLAIGLWLRFDSQTKSIFEQETNNNNSSFYTGVYILIGAGALMMLVGFLGCCGAVQESQCMLGLFFGFLLVIFAIEIAAAIWGYSHKDEVIKEVQEFYKDTYNKLKTKDEPQRETLKAIHYALNCCGLAGGVEQFISDICPKKDVLETFTVKSCPDAIKEVFDNKFHIIGAVGIGIAVVMIFGMIFSMILCCAIRRNREMVGGGGSGGGGSVDERVQPLEENVGNAARPRFERNKLLLVASVIQGLGLLLCFTYICLHFSALQVSHRYPRIQSIKVQFTEYKKEKGFILTSQKEDEIMKVQNNSVIINCDGFYLISLKGYFSQEVNISLHYQKDEEPLFQLKKVRSVNSLMVASLTYKDKVYLNVTTDNTSLDDFHVNGGELILIHQNPGEFCVLHHHHHH
notes: Engineered exosome from Expi293F cells transfected with pDisplay-PD-1-CD9-OX40L; also called exosomes displaying the HA-PD-1-CD9-OX40L-6×His fusion protein; PD-1-CD9-OX40L fusion
binds: all assays above

— US20250092143A1 (UNIVERSITY OF SOUTHERN CALIFORNIA, published 2025)
